Test results: the supplement of paper PMC12632987
Over roughly 2,300 sequences, “median log2 fold change of GCK-ALFA target abundance (FLAG IP / Myc IP barcode read proportion)” has its median near 0.095; the lowest 2% begin near -0.47. The list shows a part of the results.

B1: LC3A_free_39_2273 (protein)
chain: SMEELEKLKKEALEIAKKEGEETLKAVEELFELLKDNPEIQKKVAEGLLEVHKAGGDLLEAAKDLVELVKKLKEEGKSPEELKKELEEELKVHLNLIPLD
B2: LC3A_3_1421 (protein)
chain: MEARVAAALAALAAAGWSQETLDALRELVAELLARGAEAEAERALELVLANKDLSSEDLLEVLEEALAALREPGVSPEEVVARLEELLRIARAEQEIEEL
B3: LC3A_3_1659 (protein)
chain: MEALIAETLAYLAAQGKSPEVLAATRAALTALVERGYEEAARVFAELLRELAGLSDEVLLDLAREVLELVETSDISEEEMTERIRELARVARLEEEIEEL
B4: LC3A_3_1371 (protein)
chain: MEEEKEETLEFLREEGKSEETIEAVRRTLEALIEKGYEEAAKTFMELLKEMKDLSDEILLAFAEDVLRAVTEEDLSEEELIEFIKNEAKVARNDEEIIEL
B5: LC3A_28_757 (protein)
chain: MDVKEEVEKAIEKAKEAKAKGEEAVIEIKVPAGATQEDVDIVIEGLEEIAEINKDMKRTTIVIDVDAGVSQEHIDKLIDKGEEIEKKYPNITVIFALDED
B6: LC3A_3_1489 (protein)
chain: KEELLEEMEKVLEELGVSEETRERILEDVKKLLELGYEETVKTLIELFKEGKDMSEKQILAVTSITRDKAEEEKLSEEELVEEAKRIYENVKEIEELEEE
B7: LC3A_132_251 (protein)
chain: SEELLEEALEELKKLLEEVVKALQAGEDYLPLIKKLDELAEEHAEKLSLEETEELVEESKKYADELFAERLDPNDEEAIRARDIIDMLLDGVLIEKELRS
B8: LC3A_62_2056 (protein)
chain: MVLAEVTVDVLTKDEEAARKVAETIRRELARLRERHPEWEIEVEEEIDGNFLLVRITVRVPTETDPEEVRDALLDTIDRVLEENADLIKGALISIDVTEL
B9: LC3A_132_325 (protein)
chain: SEEELEKLRKEINKLIEEAKENIDNLEKVKELVEKIKKLLKEAEEKISPEDAAKLFNEAAEKLDEVSRKALEAGKEEVALELDGLAVEAAAKAIELEEKI
B10: LC3A_28_743 (protein)
chain: SALDAELARALAEAREAAARGESAVITITIPGTADQADIDKVMEALEEIAEILKDVPDQAIIIDVDGKLDQDLLTKLADKADEIEEKYPNVTVIIALDEE
B11: LC3A_28_1107 (protein)
chain: SSVDEENAKALAEAEKAAAAGEPAVITITVKSTDTQEDIDKKIETMEKIAEILKDVKDAAIIIDLDGEIPQEYLDKLADKGEEIEKKYPNITVIIALDEE
B12: LC3A_147_494 (protein)
chain: AVIEIDILVKNEETAEEIKEEIEKIVEELRKKGYEVELEIELEKIDENTYYLRVTITIKAPTPEEEKAAANEVLKRIEEILEKHKDDVLAALINVEFEEE
B13: LC3A_132_243 (protein)
chain: SKEKLEKLRKELEEKLKELKENIDDLEKVKELVKEIEELLEEAEKELSPEDALELHEEVADRLYEIAEEAEKAGKKEVARIVENAAMYADGRAIEQELKL
B14: LC3A_3_1679 (protein)
chain: MEELVEEVLKLLKENGFDEETIEAAKKLLEALKKRGYENAIKTLLEELKKLKDVPSELVKDMFKELLKYVTEKNPTEEEVVKLIKEEAKTLLNDLEIEEL
B15: LC3A_141_374 (protein)
chain: TKKKIKKELKNADEDEVDKLAQEVADEVEKFIKENKGKEVKVKLKVTVTDLETGETKKLEIEETVTEENAEMVTEGFVIEIMSLVLDKKVNLEIEVTLEV
B16: LC3A_free_46_2343 (protein)
chain: MKLEILIDILADTEEKAKKAVEELVKKFKELAKKYNAKLEIKVEIEKLEDGSYYARIEATFSGVTKEQAEEIENEIIDKVDEISKKYGVAAIVSSEIIEE
B17: LC3A_13_339 (protein)
chain: MVHIEATGEEESLEKAIKEVKESKAKEVKVTLTVSSEEDVEKVVAAAKELIDIAEEQGAKLEITIVGKRDHVLEAALEIGSYIFEHIDKVDVTLSLEVTP
B18: LC3A_45_1926 (protein)
chain: MWEATVDILVPRELAERALAETRRLADELEARHGPALRVDRAALDESYAASRDEEDVYLRVRIFHPDREAALAAADELSDRLDAALGGKASSIISLRELP
B19: LC3A_free_46_2338 (protein)
chain: YLVEVTVDTLAAPKEKIEEFIEEFERKAREIAEELGGEIEIEVEIEKEENGLYSAIITVKITVETKEKAEEAAQKLLDAVDELDEKYGIVGLISVSIEKE
B20: LC3A_28_651 (protein)
chain: SATRAAIEAALAEAQAALAAGEPTVITLTITGDATEADIERAIAALEEIAEIAEKLGGSTIIVDLEAGVAKEHQDRLIDKGEELEERYPKVTVIFALAEE
B21: LC3A_3_1359 (protein)
chain: MEELRAETLAFLRAQGKSEETLEAVARTLDALAARGYEAAAREFVALLRELADLPDELLLAFAEDVLEAVTKKDLSEEELIAFIREEAAVARHEAEIEEL
B22: LC3A_3_1480 (protein)
chain: MDERLAATLAALRAAGASDETLAAVRETVEALRAKGYEKAAETFLELMERHLGLPDETLLAIAELSLELVRTEDLSEEELSARIREIAEDVAGIEELDEE
B23: LC3A_free_8_2520 (protein)
chain: TSEKFTKKAVEILDKLEEEVVAYLKSKGASELEILEAELLIGSIIAEVISLKDKSLEDILKSIRDGLEDLVKELSKYKEEIKELADKALEEIEKAAEELK
B24: LC3A_28_879 (protein)
chain: MTVEEALAAARAEVAAAVAAGEEAHVVVEITEPITPEEAKALVEGLRAIVEEGASLPALSITISLSRKVSQEARDIIADGAEEIEARYPHVTVIIALEEE
B25: LC3A_free_39_2227 (protein)
chain: SKEEVEKLIKELAEKAGLDYEEVKKKIEEIKEIGGLSDEQIKELIKALLKAVEAGADAKEILEEAVKLTKELKAQGKSPEEIFEAILELIEDYRNLVPLD
B26: LC3A_3_1805 (protein)
chain: ADERIEALLEELRAAGASEETIAAAREVLTLLRERGYLEALETLIEGLRELLDAPDELRLDLLEDVLEYLETNDASEEEVTEFIKEEIRLARSESEIEEL
B27: LC3A_free_46_2424 (protein)
chain: VVVEIDIDLLHEDEEVLKKAVEEIVKAIKEIAEKHGAEVKIEVEFSKDEDGYYFARIKATITAEDLETAQEIADEITDAIDEIAEKYDVSYIISVEIIEE
B28: LC3A_28_1197 (protein)
chain: SEADKVIKEIEKQAEKALKEGDGAVIVVKISKTLSKEGVEKILETIKKEAEKLKDLERVSIIIEVESGVSQEDINLIADTGEEIEEKYPNVTVIIALDEE
B29: LC3A_free_26_2152 (protein)
chain: DIFIDLVELDKAIELLEKALKLLEEDKNASEELKKLVKEALKKAEEMTLESLEEAKKLVEEALKLLEKDKSLSEEKKKELKKLLEEALKLLEKNIEIAKS

target: MAP1LC3A, Q9H492; experiment: median log2 fold change of GCK-ALFA target abundance (FLAG IP / Myc IP barcode read proportion) (log2 ratio); each designed protein is fused to an ALFA-tag nanobody in HEK293 cells to bring the named protein to FLAG-tagged glucokinase (GCK); Myc marks an untargeted standard; higher = target protein stabilised (more abundant); conditions: target protein: 3xFLAG-MCP-GCK-ALFA reporter; HEK293 landing pad (RPLP)
Outline: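 HEK293 landing-pad cells received a recombined binder library fused to the ALFA nanobody and were induced with 2 μg mL^−1 doxycycline, then transfected with a plasmid encoding a FLAG-tagged target and a Myc-tagged standard. Lysates were collected after 48 h for anti-FLAG and anti-Myc immunoprecipitation, and the circular RNA barcodes were reverse transcribed, amplified and sequenced. Target abundance for each binder is the median log2 ratio of FLAG to Myc barcode read proportions. Barcodes had to reach a proportion of at least 10^−7 in both replicates, each binder needed at least 3 barcodes per replicate, a pseudocount of 10^−6 was applied, and the two replicates were pooled.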

Binder | median log2 fold change
B1 | 0.213
B2 | 0.254
B3 | 0.247
B4 | 0.373
B5 | -0.293
B6 | 0.312
B7 | 0.0467
B8 | 0.00793
B9 | 0.169
B10 | 0.0608
B11 | 0.154
B12 | -0.311
B13 | 0.1
B14 | 0.409
B15 | 0.0612
B16 | -0.426
B17 | 0.154
B18 | 0.177
B19 | -0.0859
B20 | -0.329
B21 | 0.287
B22 | 0.165
B23 | 0.13
B24 | 0.364
B25 | -0.251
B26 | -0.0069
B27 | 0.00266
B28 | 0.258
B29 | 0.192
